# Measurements: PubChem BioAssay AID652154 (Broad Institute, 2013)
# Screen size: about 360,000 compounds; about 4,200 (1.2%) were called active. This list was built around the results that the source calls inconclusive (neither active nor inactive); the mix of calls is not that of the screen.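 The calls were made as follows: active = mean replicate inhibition at least 60% with every replicate also reaching 60%; inconclusive = only one of the two criteria is met; inactive = mean below 60% and not all replicates reaching 60%.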
# Test: inhibitors of PAX8-driven TPO luciferase reporter, primary screen, RMG-I cells, single concentration (AID 652154);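 also: luciferase light reporting Pax8 driven TPO promoter activity; plate controls were median of neutral control wells for no effect and mitoxantrone controls for full effect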
# Conditions: SteadyGlo, 24 h, at 12.6 µM, stronger effect = higher value
row,Compound,inhibition
1,CC1CCN(CC2C(=O)O[C@@H]3C[C@@]4(C)CCC[C@H](C)C4=C[C@H]23)CC(C)(C)C1 (some centres undefined),inconclusive: 64.8%
2,CCN(CC)S(=O)(=O)c1ccc(N2CCCC2)c(NC(=O)c2ccc([N+](=O)[O-])o2)c1,inconclusive: 60.7%
3,C[C@@H]1CCCCO[C@H](CN(C)C(=O)Nc2cccc3ccccc23)[C@H](C)CN([C@H](C)CO)C(=O)c2cc(NS(=O)(=O)c3ccc(Cl)cc3)ccc2O1,inconclusive: 64.7%
4,Cc1ccc(S(=O)(=O)Nc2ccc3c(c2)C(=O)N([C@H](C)CO)C[C@H](C)[C@@H](CN(C)Cc2ccc(C(F)(F)F)cc2)OCCCC[C@H](C)O3)cc1,active: 97.4%
5,O=C(N/N=C/c1cc(Cl)ccc1O)c1ccc(Br)cc1,inconclusive: 60%
6,Cc1ccc(S(=O)(=O)Nc2cccc3cccnc23)cc1,inconclusive: 67.3%
7,CCCC(=O)N(Cc1cc(=O)[nH]c2ccccc12)c1ccc(C)cc1C,inactive: 23.6%
8,O=C(C[C@H]1C[C@@H]2c3cc(NC(=O)C4CCC4)ccc3O[C@@H]2[C@@H](CO)O1)NCc1ccccc1,inactive: 0.63%
9,COc1ccc(S(=O)(=O)N(C)C[C@H]2OCCCC[C@H](C)Oc3ccc(NS(=O)(=O)c4ccc(C)cc4)cc3C(=O)N([C@H](C)CO)C[C@@H]2C)cc1,inconclusive: 62%
10,COc1ccccc1-c1cc(NC=O)c2ncc(-c3cccc(C(=O)N(C)C)c3)n2c1,inconclusive: 65.2%
11,O=C1NC[C@H](c2ccccc2)OC(=O)[C@H](Cc2ccc(F)cc2)C/C=C\C[C@H]1CC(=O)N(CCO)Cc1ccccc1,active: 82.6%
12,Cc1ccc(S(=O)(=O)N(C)C[C@H]2Oc3c(NC(=O)Nc4ccc(C(F)(F)F)cc4)cccc3C(=O)N([C@@H](C)CO)C[C@H]2C)cc1,inconclusive: 61.6%
13,CN(C)c1ccc(NC(=S)c2ccccn2)cc1,inconclusive: 66.6%
14,COc1ccc(-c2n(Cc3ccccc3)c3ccccc3[n+]2Cc2ccccc2)cc1,active: 88.9%
15,COCc1[nH]nc2c1C(c1ccc3c(c1)OCO3)N(c1ccc(OC)cc1)C2=O (centres undefined),inactive: -10.6%
16,Cc1noc(C)c1NC(=O)Nc1ccc2c(c1)CC(=O)N([C@H](C)CO)C[C@H](C)[C@H](CN(C)S(=O)(=O)c1c(C)noc1C)O2,inactive: -17.7%
17,O=C(NNC(=S)Nc1cccc(C(F)(F)F)c1)c1ccccc1Cl,inconclusive: 61.6%
18,C[C@@H]1CN([C@@H](C)CO)C(=O)Cc2cc(NC(=O)Nc3cccc4ccccc34)ccc2O[C@@H]1CN(C)Cc1ccc(C(F)(F)F)cc1,inconclusive: 67.2%
19,COc1ccc(C(NC(=O)C(C)C)c2ccc3cccnc3c2O)cc1 (centres undefined),inconclusive: 61.8%
20,COc1ccc(/C=C2/CCCC(C(=O)C(F)(F)F)=C2O)cc1OC,inconclusive: 61.5%
21,CC(C)[C@H](NC(=O)c1ccco1)C(=O)OCC(=O)c1ccc(Br)s1,inconclusive: 62%
22,OC[C@H]1[C@@H](c2ccc(Br)cc2)[C@@H]2CN(Cc3ccccn3)CCCCN12,inactive: 5.92%

row,Compound,inhibition
1,O=C(O)c1cc(/C=C/c2ccc(N3CCOCC3)cc2)nc2ccccc12,inactive: -8.52%
2,Cn1c(CCN2CCN(c3ccccn3)CC2)nc2cc(NS(=O)(=O)c3ccc(Cl)cc3)ccc21,active: 89.9%
3,C[C@@H]1CCCCO[C@@H](CN(C)Cc2ccc(C(F)(F)F)cc2)[C@@H](C)CN([C@H](C)CO)C(=O)c2cc(NC(=O)CCCCCC(=O)Nc3ccccc3N)ccc2O1,inconclusive: 60.9%
4,C[C@@H]1CN([C@@H](C)CO)C(=O)Cc2cc(NC(=O)CCC(F)(F)F)ccc2O[C@H]1CN(C)Cc1ccc(C(F)(F)F)cc1,inconclusive: 60%
5,CCCCCCCCCCCCCCCC[n+]1ccc(C(N)=O)cc1,active: 111%
6,CCN1CCN(c2ccc(NC(=O)c3ccc([N+](=O)[O-])o3)cc2Cl)CC1,active: 83.3%
7,Cc1ccc(S(=O)(=O)N(C)C[C@H]2OCc3cnnn3CCCC(=O)N([C@H](C)CO)C[C@H]2C)cc1,inconclusive: 60.7%
8,COc1ccccc1C(=O)Nc1ccc2c(c1)C(=O)N(C)[C@@H]1CC[C@@H](CC(=O)NCc3ccc(Cl)c(Cl)c3)O[C@@H]1CO2,inconclusive: 62.3%
9,CCCCc1ccc(NC(=O)CSc2nc(=O)n(CCN(CC)CC)c3c2CCCC3)cc1,inconclusive: 64%
10,Cc1noc(/C=C/c2ccco2)c1S(=O)(=O)N1CCC(C(=O)N2CCc3ccccc32)CC1,inconclusive: 62.7%
11,Cc1cnc(C(=O)OCC(=O)Nc2ccc3c(c2)OCCO3)cn1,inactive: -5.88%
12,N=c1c2c(-c3ccccc3)c(-c3ccccc3)n(Cc3ccco3)c2ncn1CCCN1CCOCC1,inconclusive: 60.2%
13,CC(C)Oc1ccc(C(CC(=O)O)NC(=O)C(Sc2ccccc2)c2ccccc2)cc1 (centres undefined),inactive: 4.75%
14,COc1ccc(-c2coc3c(C(=O)Nc4cccnc4)cccc23)c(C)c1,inactive: -16.7%
15,Cc1noc(C)c1S(=O)(=O)Nc1ccc2c(c1)C(=O)N([C@@H](C)CO)C[C@H](C)[C@@H](CN(C)S(=O)(=O)c1ccc(Cl)cc1)OCCCC[C@@H](C)O2,inconclusive: 64%
16,CC(C)(C)c1ccc(CCC2OCC(C[N+]3(C)CCOCC3)O2)cc1 (centres undefined),inconclusive: 62.8%
17,O=[N+]([O-])c1cc(-c2nnc(Nc3ccccc3)c3ccccc23)ccc1N1CCOCC1,inconclusive: 61.1%
18,CC(=O)c1c(C)[nH]c(C(=O)N2CCN(c3cc(Cl)ccc3C)CC2)c1C,inconclusive: 61.9%
19,CCOC(=O)c1cc2c(=O)n3ccccc3nc2n(C(C)C)c1=NC(=O)c1c(-c2c(F)cccc2Cl)noc1C,inactive: -0.559%
20,CCOc1cccc(/C=N/Nc2ccc(S(=O)(=O)N(CC)CC)cn2)c1O,inconclusive: 63.3%
21,C[C@@H]1CN([C@@H](C)CO)C(=O)c2cc(NC(=O)Cc3ccccc3)ccc2O[C@@H](C)CCCCO[C@@H]1CN(C)Cc1ccc2c(c1)OCO2,inactive: -3.4%
22,O=[N+]([O-])c1cc(-c2csc(NCCc3nc4cc(Cl)c(N5CCCCC5)cc4n3CCCO)n2)ccc1Cl,inactive: 14.3%
